Reference: paper PMC4598080
Results are given in words; binding and its absence hold for the method and conditions named. For some of these results: Binding seen in cells or lysates may run through a third protein. Some entries that bind do so weakly or less than the wild type. Sequences can lack the tags named with a protein. Values belong to the binder of their own block, whether it stands above or below them.

Protein sequences, listed by entry. Tags and fused reporters are not part of them. Lines headed by an entry give the natural chain unless they say otherwise; changes in a name come on top. Chains listed by the source or under a name are the forms on record and can include a tag or linker. Residues count along the entry.
UniProt P10664: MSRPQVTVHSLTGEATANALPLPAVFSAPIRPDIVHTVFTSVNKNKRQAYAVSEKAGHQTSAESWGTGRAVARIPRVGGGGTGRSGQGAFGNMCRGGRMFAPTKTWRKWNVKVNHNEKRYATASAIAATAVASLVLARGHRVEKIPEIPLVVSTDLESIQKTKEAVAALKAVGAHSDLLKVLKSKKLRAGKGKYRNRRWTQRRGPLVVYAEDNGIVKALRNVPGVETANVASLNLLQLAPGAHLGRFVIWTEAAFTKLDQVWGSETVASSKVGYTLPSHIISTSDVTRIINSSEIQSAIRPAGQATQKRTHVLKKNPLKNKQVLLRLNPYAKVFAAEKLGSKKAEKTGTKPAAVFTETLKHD
Rpl4a.N114 fused to the C-terminal Gal4 DNA-binding domain: residues 1-114 of P10664
Rpl4a amino acids 43-114 (long internal loop) fused to the C-terminal Gal4 DNA-binding domain: residues 43-114 of P10664
Rpl4a amino acids 72-114 with a C-terminal (His)6 tag: residues 72-114 of P10664
Rpl4a amino acids 88-264 fused to the C-terminal Gal4 DNA-binding domain: residues 88-264 of P10664
Rpl4a amino acids 96-264 fused to the C-terminal Gal4 DNA-binding domain: residues 96-264 of P10664
Rpl4a block-II mutant fused to the C-terminal Gal4 DNA-binding domain (P10664, form named): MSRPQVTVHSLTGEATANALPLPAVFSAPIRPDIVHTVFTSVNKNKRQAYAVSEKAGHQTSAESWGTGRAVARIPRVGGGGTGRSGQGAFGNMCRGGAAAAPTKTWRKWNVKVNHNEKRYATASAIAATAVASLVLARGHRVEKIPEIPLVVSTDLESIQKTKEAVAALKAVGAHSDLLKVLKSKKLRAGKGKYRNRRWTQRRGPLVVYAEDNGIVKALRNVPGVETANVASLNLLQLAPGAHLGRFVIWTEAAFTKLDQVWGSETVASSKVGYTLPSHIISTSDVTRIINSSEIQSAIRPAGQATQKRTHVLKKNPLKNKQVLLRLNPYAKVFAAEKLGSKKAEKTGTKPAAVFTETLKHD
Rpl4a block-III mutant fused to the C-terminal Gal4 DNA-binding domain (P10664, form named): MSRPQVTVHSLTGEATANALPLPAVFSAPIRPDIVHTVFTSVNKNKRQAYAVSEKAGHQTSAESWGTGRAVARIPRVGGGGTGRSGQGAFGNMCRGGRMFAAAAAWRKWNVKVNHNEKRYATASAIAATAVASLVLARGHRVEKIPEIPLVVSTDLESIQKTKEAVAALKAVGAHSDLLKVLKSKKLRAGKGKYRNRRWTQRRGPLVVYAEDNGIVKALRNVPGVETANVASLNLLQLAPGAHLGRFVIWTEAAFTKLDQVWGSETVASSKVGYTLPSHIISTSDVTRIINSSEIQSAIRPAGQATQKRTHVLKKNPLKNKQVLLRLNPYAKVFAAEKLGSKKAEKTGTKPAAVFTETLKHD
Rpl4a block-IV mutant fused to the C-terminal Gal4 DNA-binding domain (P10664, form named): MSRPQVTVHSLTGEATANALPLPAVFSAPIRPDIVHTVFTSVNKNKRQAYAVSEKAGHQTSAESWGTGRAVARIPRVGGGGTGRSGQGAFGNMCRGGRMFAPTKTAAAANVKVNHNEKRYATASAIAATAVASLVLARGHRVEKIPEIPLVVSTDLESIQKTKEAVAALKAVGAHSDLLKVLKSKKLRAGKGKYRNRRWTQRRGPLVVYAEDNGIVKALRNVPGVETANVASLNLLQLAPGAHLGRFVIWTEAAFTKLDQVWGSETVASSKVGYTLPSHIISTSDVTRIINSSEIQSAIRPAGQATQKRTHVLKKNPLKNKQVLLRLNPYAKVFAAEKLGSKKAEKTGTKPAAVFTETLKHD
Rpl4a lacking the long internal loop (deletion of amino acids 46-110) fused to the C-terminal Gal4 DNA-binding domain (P10664, form named): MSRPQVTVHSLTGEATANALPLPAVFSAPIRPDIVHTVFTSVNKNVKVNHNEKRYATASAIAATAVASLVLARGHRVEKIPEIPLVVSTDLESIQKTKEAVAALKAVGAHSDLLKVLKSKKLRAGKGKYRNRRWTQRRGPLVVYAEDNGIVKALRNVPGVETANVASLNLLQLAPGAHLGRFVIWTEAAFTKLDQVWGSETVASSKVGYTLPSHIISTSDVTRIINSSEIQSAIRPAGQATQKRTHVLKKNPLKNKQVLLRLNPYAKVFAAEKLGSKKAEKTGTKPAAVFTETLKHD
Rpl4a block-I mutant fused to the C-terminal Gal4 DNA-binding domain (P10664, form named): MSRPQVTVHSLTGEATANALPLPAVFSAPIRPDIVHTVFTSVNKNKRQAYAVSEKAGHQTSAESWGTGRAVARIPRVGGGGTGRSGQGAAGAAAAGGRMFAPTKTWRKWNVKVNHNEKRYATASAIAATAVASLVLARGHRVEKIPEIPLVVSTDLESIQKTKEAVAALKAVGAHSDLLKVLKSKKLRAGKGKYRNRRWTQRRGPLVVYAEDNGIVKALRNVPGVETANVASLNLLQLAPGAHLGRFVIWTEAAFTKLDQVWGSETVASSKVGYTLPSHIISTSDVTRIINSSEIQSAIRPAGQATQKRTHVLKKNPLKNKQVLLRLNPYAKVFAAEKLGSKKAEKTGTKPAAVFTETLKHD

Legend:
[1] = biological target: Rpl4a amino acids 88-264 fused to the C-terminal Gal4 DNA-binding domain (S. cerevisiae) (UniProt P10664); assay: two-hybrid; Rpl4a variants fused to G4BD (bait) and Acl4 fused to G4AD (prey) in reporter strain PJ69-4A; growth on SC-His-Leu-Trp (HIS3) and SC-Ade-Leu-Trp (ADE2) plates, 3 d at 30°C
[2] = biological target: Rpl4a amino acids 96-264 fused to the C-terminal Gal4 DNA-binding domain (S. cerevisiae) (UniProt P10664); assay: as above
[3] = biological target: Rpl4a.N114 fused to the C-terminal Gal4 DNA-binding domain (S. cerevisiae) (UniProt P10664); assay: as above
[4] = biological target: Rpl4a block-II mutant fused to the C-terminal Gal4 DNA-binding domain (S. cerevisiae) (UniProt P10664); assay: as above
[5] = biological target: Rpl4a block-III mutant fused to the C-terminal Gal4 DNA-binding domain (S. cerevisiae) (UniProt P10664); assay: as above
[6] = biological target: full-length Rpl4a fused to the C-terminal Gal4 DNA-binding domain (S. cerevisiae) (UniProt P10664); assay: as above
[7] = biological target: Rpl4a amino acids 43-114 (long internal loop) fused to the C-terminal Gal4 DNA-binding domain (S. cerevisiae) (UniProt P10664); assay: as above
[8] = biological target: T1, Rpl4a amino acids 96-114 fused to the C-terminal Gal4 DNA-binding domain (S. cerevisiae) (UniProt P10664); assay: as above
T1 sequence: GGRMFAPTKTWRKWNVKVN

[9] = biological target: Rpl4a block-IV mutant fused to the C-terminal Gal4 DNA-binding domain (S. cerevisiae) (UniProt P10664); assay: as above
[10] = biological target: Rpl4a lacking the long internal loop (deletion of amino acids 46-110) fused to the C-terminal Gal4 DNA-binding domain (S. cerevisiae) (UniProt P10664); assay: as above
[11] = biological target: Rpl4a block-I mutant fused to the C-terminal Gal4 DNA-binding domain (S. cerevisiae) (UniProt P10664); assay: as above
[12] = biological target: Rpl4a amino acids 72-114 with a C-terminal (His)6 tag (S. cerevisiae) (UniProt P10664); assay: pull-down; Rpl4a-(His)6 variants co-expressed with Acl4-Flag in E. coli Rosetta(DE3); Ni-NTA agarose purification of the bait from soluble extract; 50 mM Tris-HCl pH 7.5, 200 mM NaCl, 1.5 mM MgCl2, 5% glycerol, 0.1% NP-40, 4°C; imidazole eluate, Coomassie and anti-Flag/anti-His blots
[13] = biological target: full-length Rpl4a with a C-terminal (His)6 tag (S. cerevisiae) (UniProt P10664); assay: as above

binding [1]: binds
binding [2]: no binding
binding [3]: binds
binding [4]: no binding
binding [5]: no binding
binding [6]: binds
binding [7]: binds
binding [8]: no binding
binding [9]: no binding
binding [10]: no binding
binding [11]: no binding
B1: full-length Acl4 fused to the C-terminal Gal4 activation domain (protein, UniProt Q03771 1-387)
chain: MSELEATIRQAKEALAENNAKKALKILKPFKSSLKKENANNVILNEVFADAYLDNGQVEKAYPILARACELDPEGQVGGPDKFFTMGQIMGGQDGVSIITRGIMNISNTGGEMLTNVQVEKIVGGLLSVIEIWMTDLCMEPNAEEQCEELIQKAMELTEGKSPETWSTLGSIKISQQKFGEAYEAFSQAWNFFELKKQEIGSGINENGDTTQKAGLQSEYVDLLQPLLSLTKMCLEVGAYEVALKVIAAVRDIDEDNIEGYYLEGFTYYLMSKLEIFKLNNPEVSLRPENIYEFNQLIQEVPLDLSHEPISQLIYDSRLALSFALQAGVNADSKDEIVQELLGGANALLQEIGGPLDPSELTQIKKGDLVNENEDLEELDIEEEYSD

binding [12]: binds
binding [13]: binds
B2: full-length Acl4-Flag (protein, UniProt Q03771 1-387)
chain: B1 chain
